Experimental data reported in ChEMBL document CHEMBL1201862, “PubChem BioAssay data set” (2004).
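Briefly, cells in 96-well plates were exposed to five compound concentrations for 48 h, and endpoints were estimated by linear interpolation. GI50 = concentration required for 50% inhibition of growth.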 Active and inactive are the calls of the source. Rule as the data show it: active = GI50 up to about 1.1 µM and inactive = higher. Peptide text beside a SMILES is read from it.

system: NCI-H322M; experiment: inhibition of tumour cell growth, NCI panel, 48 h

Row | SMILES | GI50
1 | Cc1cc(C)nc(NC(=S)Nc2cccc(Cl)c2)c1 | inactive: > 100 µM
2 | CCC(C)(O)c1cn(-c2cccc(S(=O)(=O)O)c2)nn1 (configuration not stated) | inactive: > 100 µM
3 | N=C(N)NS(=O)(=O)c1ccc(Nc2c3ccccc3nc3c(C(=O)N4CCN(CCO)CC4)cccc23)cc1 | inactive: > 100 µM
4 | ClCC[N+]12CC[N+](CCCl)(CC1)C2 | inactive: > 100 µM
5 | C=C1CC(C)(COc2cc(=O)oc3ccccc23)OC1=O (configuration not stated) | inactive: 10 µM
6 | O=C1CSC(c2cccs2)N1c1nc2cc3sc(N4C(=O)CSC4c4cccs4)nc3cc2s1 (configuration not stated) | inactive: 49.1 µM
7 | CNc1ccc(/C=C2\C=Cc3ccccc32)cc1 | inactive: 28.7 µM
8 | O=C1/C(=C/c2cccs2)NC(=S)N1CN1CCCCC1 | inactive: > 100 µM
9 | CC1CC/C(=C\c2ccc(Cl)cc2)C(=O)/C1=C\c1ccc(Cl)cc1 (configuration not stated) | inactive: 48.1 µM
10 | CC(C)C[C@H](NC(=O)[C@H](CC(C)C)NC(=O)[C@@H](Cc1c[nH]c2ccccc12)NC(=O)[C@H](Cc1ccccc1)NC(=O)[C@@H](Cc1c[nH]c2ccccc12)NC(=O)[C@H](CCC(N)=O)NC(=O)[C@@H](CCC(N)=O)NC(=O)[C@@H]1CCCN1C(=O)[C@@H](CCCCN)NC(=O)[C@H]1CCCN1C(=O)[C@H](N)CCCN=C(N)N)C(N)=O (HELM PEPTIDE1{[dR].[dP].[dK].P.[dQ].Q.[dW].F.[dW].L.L.[am]}$$$$V2.0) | inactive: > 100 µM
11 | COc1cc2c(/C=C3/C(=O)Nc4ccc(O)cc43)c(Cl)n(Cc3ccccc3)c2cc1C | active: 0.938 µM
12 | CN(C)CCNc1ccc2c(=O)n(CCN(C)C)c(=O)n3c4ccc(N)cc4c(=O)c1c23 | active: < 0.0191 µM
13 | Nc1nc(Nc2ccccc2)sc1C(=O)c1cccs1 | inactive: 6.34 µM
14 | CC(CCCOC(c1ccccc1)(c1ccccc1)c1ccccc1)OC(=O)Nc1cc([N+](=O)[O-])cc([N+](=O)[O-])c1 (configuration not stated) | inactive: 37 µM
15 | Cc1cn(S(=O)(=O)c2ccccc2)c2c(OCc3ccccc3)cc([N+](=O)[O-])cc12 | inactive: > 100 µM
16 | COc1ccc(C2[C@H]3C(=O)N(c4ccc(Cc5ccc(N6C(=O)[C@@H]7ON(c8ccccc8)C(c8ccc(OC)cc8)[C@@H]7C6=O)cc5)cc4)C(=O)[C@H]3ON2c2ccccc2)cc1 (some centres not stated) | inactive: > 100 µM
17 | CN1C(=O)C(O)C[C@@H]1c1ccc(F)cc1 (some centres not stated) | inactive: > 100 µM
18 | NCC(O)CSCc1ccc(Cl)cc1 (configuration not stated) | inactive: > 100 µM
19 | Fc1cccc2nc(-c3ccccc3)cc(OCc3ccccc3)c12 | inactive: 97.3 µM
20 | COC[C@@H](/N=C/N1CCc2cc(OC)c(OC)cc2[C@@H]1C)C(C)(C)C | inactive: > 100 µM
21 | Fc1ccc2nc3n(c2c1)C(c1c(Cl)cccc1Cl)SC3 (configuration not stated) | inactive: > 100 µM

Row | SMILES | GI50
22 | Cc1ccc(S(=O)(=O)N2CCN(C=S)CC2)cc1 | inactive: > 100 µM
23 | Cc1cc(C(=O)CCCCOc2ccc(C3=NCCO3)cc2)c(C)n1C | inactive: > 100 µM
24 | CO[C@@H]1C=C[C@@]23c4cc5c(cc4C(=O)O[C@H]2CN(C)[C@H]3C1)OCO5 | inactive: > 100 µM
25 | O=c1cc(N=P(c2ccccc2)(c2ccccc2)c2ccccc2)n(-c2ccccc2)c(=O)n1-c1ccccc1 | inactive: 19.1 µM
26 | CCCCOC(=O)C1CN2C=CC=NC2=NC1(C(F)(F)F)C(F)(F)F (configuration not stated) | inactive: > 100 µM
27 | C=CCN1/C(=C2\SC(=S)N(c3ccc(C)cc3)C2=O)Sc2c1nc[nH]c2=O | inactive: > 100 µM
28 | O=C(CC1(O)C(=O)Nc2ccccc21)c1ccccc1Cl (configuration not stated) | inactive: > 100 µM
29 | CCCCOCn1c(=O)[nH]c(=O)c2cc(Br)ccc21 | inactive: > 100 µM
30 | CC(=O)[C@@]1(C)CC2(CCN(C)CC2)OC1C (some centres not stated) | inactive: > 100 µM
31 | CC1=C(O)C(=O)c2cn(C)cc2C1=O | inactive: > 100 µM
32 | NS(=O)(=O)c1nnc(NS(=O)(=O)c2ccccc2C(=O)O)s1 | inactive: > 100 µM
33 | CC1=C/C(=N\NC(N)=S)C(C(O)(C(F)(F)F)C(F)(F)F)C(C)(C)C1 (configuration not stated) | inactive: > 10 µM
34 | c1ccc2c(CN3CCC(C4CCN(Cc5cccc6ccccc56)CC4)CC3)cccc2c1 | inactive: 9.66 µM
35 | FC(F)(F)C1(Br)C(c2ccccc2)=C1c1ccccc1 | inactive: 29.5 µM
36 | CCN1C(=O)C(=C/C=C/C=C2/N(C)c3ccccc3C2(C)C)C(=O)N(CC)C1=S | inactive: > 100 µM
37 | COc1ccc(C(C)NNC(=O)c2cc[n+]([BH2-]C#N)cc2)c(OC)c1 (configuration not stated) | inactive: > 100 µM
38 | COc1ccc(/C(=N\NC(=O)C(N)=O)C(c2ccc(OC)cc2)C2(O)C(=O)Nc3c(Cl)cccc32)cc1 (configuration not stated) | inactive: > 100 µM
39 | O=C1OC2C(O)C(=O)OC2C1O (configuration not stated) | inactive: > 100 µM
40 | CC(=O)CCC[C@H](C)[C@@H](O)[C@@H]1O[C@H]([C@@]2(C)CCC(=O)O2)C[C@H]1C(=O)O | inactive: > 100 µM
41 | COc1cc(Cn2c3ccccc3c3cc(C)cc(OC)c32)cc2c1[nH]c1ccccc12 | inactive: > 25 µM
42 | Cn1c(=O)c2[nH]cnc2n(CC(N)=O)c1=O | inactive: > 100 µM

Row | SMILES | GI50
43 | O=C(O)C12CC3CC(C1)C2C=C3P(=O)(O)O (configuration not stated) | inactive: > 100 µM
44 | C/C(=N\Nc1ncnc2ccccc12)c1ccccn1 | active: < 0.0193 µM
45 | Cc1nc(Cc2n[nH]c(C)n2)n[nH]1 | inactive: > 100 µM
46 | [O-][n+]1ccc(NO)c2ccccc21 | inactive: 1.16 µM
47 | CCOC1NC(/N=C/c2ccc(OC)cc2)=C(C#N)C1C#N (configuration not stated) | inactive: > 100 µM
48 | O=C(c1ccco1)n1c2ccc(Br)cc2c2nc3ccccc3nc21 | inactive: 53.5 µM
49 | CCCCCC(=O)OCC(=O)[C@H]1[C@H](C)C[C@H]2[C@@H]3C[C@H](F)C4=C/C(=N/OC(=O)c5cccc6c(=O)c7ccccc7[nH]c56)C=C[C@]4(C)[C@H]3[C@@H](O)C[C@@]21C | inactive: 41.7 µM
50 | O=C(/C=C/c1c(O)ccc2ccccc12)c1cccc(O)c1 | inactive: > 100 µM
51 | COCN1C(=O)[C@@H]2CCCN2C(=O)c2ccc(N)cc21 | inactive: > 100 µM
52 | C/C(CC(=O)Nc1ccc(C)c(C)c1)=N\N(c1ccccc1)c1ccccc1 | inactive: > 100 µM
53 | Cc1ccc(S(=O)(=O)NNC(=O)Nc2ccc(Cl)cc2)cc1 | inactive: > 100 µM
54 | Clc1ccc(C2ON=C(c3ccccc3)N2C23CC4CC(CC(C4)C2)C3)cc1 (configuration not stated) | inactive: > 10 µM
55 | COc1ccccc1/N=C(\N)N/N=C/c1c[nH]c2ccccc12 | inactive: 10.6 µM
56 | N#Cc1c2c(c(Nc3ccc(F)cc3)n3c1nc1ccccc13)CCC2 | inactive: 10.1 µM
57 | CCCCCCCCNC(=O)SCCCC | inactive: 77.3 µM
58 | C[C@]12CCC(=O)C=C1CC[C@@H]1[C@@H]2C(=O)C[C@@]2(C)[C@H]1CC[C@]2(O)C(=O)CO [CORTISONE] | inactive: > 100 µM
59 | CC(=O)OCC1OC(n2c(-c3ccc(C)cc3)cc(-c3ccccc3)c(C#N)c2=S)C(OC(C)=O)C(OC(C)=O)C1OC(C)=O (configuration not stated) | inactive: > 100 µM
60 | Cc1cc2c(c(S(=O)(=O)c3ccccc3[N+](=O)[O-])c1)NCCC2 | inactive: > 100 µM
61 | C[N+](C)(C)CC1CCc2ccccc2C1=O (configuration not stated) | inactive: 18.8 µM
62 | CC(C)COC(c1ccc2c(c1)OCO2)C(C)Br (configuration not stated) | inactive: 36.3 µM
